From PubChem BioAssay (NCI)
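Cultured in 96-well plates, cells were exposed to test compound for 48 hours across five concentrations. At the TGI there is no net growth.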

What was measured:
Assay in all cases: NCI-60 cell line screen, 48 h
[1] = system: RPMI-8226 leukemia
[2] = system: NCI-H23 lung
[3] = system: HCT-15 colon
[4] = system: 786-0 renal
[5] = system: NCI-H522 lung
[6] = system: SF-295 CNS
[7] = system: BT-549 breast
[8] = system: LXFL 529 NSCLC
[9] = system: SR leukemia
[10] = system: T-47D breast
[11] = system: M14 melanoma
[12] = system: LOX IMVI melanoma
[13] = system: COLO 205 colon
[14] = system: A549 NSCLC
[15] = system: PC-3 prostate
[16] = system: HOP-18 NSCLC
[17] = system: M19-MEL melanoma
[18] = system: NCI-H226 lung
[19] = system: SNB-78 CNS
[20] = system: MDA-MB-231 breast
[21] = system: SF-539 CNS
[22] = system: IGROV1 ovarian
[23] = system: EKVX NSCLC
[24] = system: U251 CNS
[25] = system: DMS 273 small cell lung
[26] = system: HOP-62 NSCLC
[27] = system: DLD-1 colon
[28] = system: UACC-62 melanoma
[29] = system: K-562 leukemia
[30] = system: ACHN renal
[31] = system: SW-620 colon
[32] = system: HCT-116 colon
[33] = system: HS 578T breast
[34] = system: NCI/ADR-RES ovarian
[35] = system: HT29 colon
[36] = system: DU-145 prostate
[37] = system: SNB-19 CNS
[38] = system: HCC-2998 colon
[39] = system: OVCAR-8 ovarian
[40] = system: TK-10 renal
[41] = system: SNB-75 CNS
[42] = system: KM20L2 colon
[43] = system: NCI-H460 lung
[44] = system: MALME-3M melanoma
[45] = system: OVCAR-4 ovarian
[46] = system: SN12C renal
[47] = system: CCRF-CEM leukemia
[48] = system: MOLT-4 leukemia
[49] = system: UO-31 renal
[50] = system: HL-60(TB) leukemia
[51] = system: A498 renal
[52] = system: UACC-257 melanoma
[53] = system: KM12 colon
[54] = system: SK-MEL-2 melanoma
[55] = system: SK-MEL-28 melanoma
[56] = system: SF-268 CNS
[57] = system: RXF-631 renal
[58] = system: XF 498 CNS
[59] = system: RXF 393 renal
[60] = system: MCF7 breast
[61] = system: CAKI-1 renal
[62] = system: MDA-MB-435

COc1cc2c(c(OC)c1OC)-c1ccc(SC)c(=O)cc1[C@@H](NC(C)=O)CC2
TGI [1]: 89.7 µM
TGI [2]: 0.47 µM
TGI [3]: > 100 µM
TGI [4]: > 100 µM
TGI [5]: < 0.01 µM
TGI [6]: 0.398 µM
TGI [7]: > 100 µM
TGI [8]: > 100 µM
TGI [9]: > 100 µM
TGI [10]: > 100 µM
TGI [11]: 77.4 µM
TGI [12]: > 100 µM
TGI [13]: < 0.01 µM
TGI [14]: 88.6 µM
TGI [15]: > 100 µM
TGI [16]: > 100 µM
TGI [17]: > 100 µM
TGI [18]: 2.51 µM
TGI [19]: > 100 µM
TGI [20]: 5.72 µM
TGI [21]: 0.0464 µM
TGI [22]: 21.5 µM
TGI [23]: > 100 µM
TGI [24]: 15.8 µM
TGI [25]: > 100 µM
TGI [26]: > 100 µM
TGI [27]: > 100 µM
TGI [28]: > 100 µM
TGI [29]: > 100 µM
TGI [30]: > 100 µM
TGI [31]: > 100 µM
TGI [32]: 9.24 µM
TGI [33]: > 100 µM
TGI [34]: < 0.01 µM
TGI [35]: 4.8 µM
TGI [36]: 23.9 µM
TGI [37]: > 100 µM
TGI [38]: 72.9 µM
TGI [39]: > 100 µM
TGI [40]: > 100 µM
TGI [41]: 13.2 µM
TGI [42]: < 0.01 µM
TGI [43]: > 100 µM
TGI [44]: > 100 µM
TGI [45]: > 100 µM
TGI [46]: > 100 µM
TGI [47]: 15.8 µM
TGI [48]: 34.4 µM
TGI [49]: > 100 µM
TGI [50]: < 0.01 µM
TGI [51]: 3.33 µM
TGI [52]: > 100 µM
TGI [53]: 0.215 µM
TGI [54]: 15.8 µM
TGI [55]: > 100 µM
TGI [56]: > 100 µM
TGI [57]: 13.3 µM
TGI [58]: 95 µM
TGI [59]: > 100 µM
TGI [60]: > 100 µM
TGI [61]: > 100 µM
TGI [62]: < 0.01 µM
